# The list shows a part of the results.
# B1: mLPHN-1 (Mus musculus), Q80TR1 (protein)
# chain: MARLAAALWSLCVTTVLVTSATQGLSRAGLPFGLMRRELACEGYPIELRCPGSDVIMVENANYGRTDDKICDADPFQMENVQCYLPDAFKIMSQRCNNRTQCVVVAGSDAFPDPCPGTYKYLEVQYDCVPYIFVCPGTLQKVLEPTSTHESEHQSGAWCKDPLQAGDRIYVMPWIPYRTDTLTEYASWEDYVAARHTTTYRLPNRVDGTGFVVYDGAVFYNKERTRNIVKYDLRTRIKSGETVINTANYHDTSPYRWGGKTDIDLAVDENGLWVIYATEGNNGRLVVSQLNPYTLRFEGTWETGYDKRSASNAFMVCGVLYVLRSVYVDDDSEAAGNRVDYAFNTNANREEPVSLAFPNPYQFVSSVDYNPRDNQLYVWNNYFVVRYSLEFGPPDPSAGPATSPPLSTTTTARPTPLTSTASPAATTPLRRAPLTTHPVGAINQLGPDLPPATAPAPSTRRPPAPNLHVSPELFCEPREVRRVQWPATQQGMLVERPCPKGTRGIASFQCLPALGLWNPRGPDLSNCTSPWVNQVAQKIKSGENAANIASELARHTRGSIYAGDVSSSVKLMEQLLDILDAQLQALRPIERESAGKNYNKMHKRERTCKDYIKAVVETVDNLLRPEALESWKDMNATEQVHTATMLLDVLEEGAFLLADNVREPARFLAAKQNVVLEVTVLNTEGQVQELVFPQEYPSENSIQLSANTIKQNSRNGVVKVVFILYNNLGLFLSTENATVKLAGEAGTGGPGGASLVVNSQVIAASINKESSRVFLMDPVIFTVAHLEAKNHFNANCSFWNYSERSMLGYWSTQGCRLVESNKTHTTCACSHLTNFAVLMAHREIYQGRINELLLSVITWVGIVISLVCLAICISTFCFLRGLQTDRNTIHKNLCINLFLAELLFLVGIDKTQYEVACPIFAGLLHYFFLAAFSWLCLEGVHLYLLLVEVFESEYSRTKYYYLGGYCFPALVVGIAAAIDYRSYGTEKACWLRVDNYFIWSFIGPVSFVIVVNLVFLMVTLHKMIRSSSVLKPDSSRLDNIKSWALGAIALLFLLGLTWAFGLLFINKESVVMAYLFTTFNAFQGVFIFVFHCALQKKVHKEYSKCLRHSYCCIRSPPGGTHGSLKTSAMRSNTRYYTGTQSRIRRMWNDTVRKQTESSFMAGDINSTPTLNRGTMGNHLLTNPVLQPRGGTSPYNTLIAESVGFNPSSPPVFNSPGSYREPKHPLGGREACGMDTLPLNGNFNNSYSLRSGDFPPGDGGPEPPRGRNLADAAAFEKMIISELVHNNLRGASGGAKGPPPEPPVPPVPGVSEDEAGGPGSADRAEIELLYKALEEPLLLPRAQSVLYQSDLDESESCTAEDGATSRPLSSPPGRDSLYASGANLRDSPSYPDSSPEGPNEALPPPPPAPPGPPEIYYTSRPPALVARNPLQGYYQVRRPSHEGYLAAPSLEGPGPDGDGQMQLVTSL
# Experiments:
# Test in all cases: glycan array binding signal (z-score within array); higher = stronger binding
# Conditions in all cases: glycan notation: IUPAC condensed, linker removed
# Fuc(a1-2)Gal = biological target: Fuc(a1-2)Gal
# Summary of the method: (§1)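 Negative Z-scores can be read as non-binding. The Z-score is calculated within each array and then averaged across arrays of one protein sequence at different concentrations or buffers and across linkers. Arrays, 3228 in all, were curated from the Consortium for Functional Glycomics database and kept only where the protein sequence was available.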
# Fuc(a1-2)Gal(b1-3)GalNAc = biological target: Fuc(a1-2)Gal(b1-3)GalNAc
# Summary of the method: as §1
# [1] = biological target: Fuc(a1-2)Gal(b1-3)GalNAc(b1-3)Gal
# Summary of the method: as §1
# [2] = biological target: Fuc(a1-2)Gal(b1-3)GalNAc(b1-3)Gal(a1-4)Gal(b1-4)Glc
# Summary of the method: as §1
# [3] = biological target: Fuc(a1-2)Gal(b1-3)GalNAc(b1-4)[Neu5Ac(a2-3)]Gal(b1-4)Glc
# Summary of the method: as §1
# Fuc(a1-2)Gal(b1-3)GlcNAc = biological target: Fuc(a1-2)Gal(b1-3)GlcNAc
# Summary of the method: as §1
# [4] = biological target: Fuc(a1-2)Gal(b1-3)GlcNAc(b1-3)Gal(b1-4)Glc
# Summary of the method: as §1
# [5] = biological target: Fuc(a1-2)Gal(b1-3)[Fuc(a1-4)]GlcNAc
# Summary of the method: as §1
# Fuc(a1-2)Gal(b1-4)Glc = biological target: Fuc(a1-2)Gal(b1-4)Glc
# Summary of the method: as §1
# Fuc(a1-2)Gal(b1-4)Glc6S = biological target: Fuc(a1-2)Gal(b1-4)Glc6S
# Summary of the method: as §1
# Fuc(a1-2)Gal(b1-4)GlcNAc = biological target: Fuc(a1-2)Gal(b1-4)GlcNAc
# Summary of the method: as §1
# [6] = biological target: Fuc(a1-2)Gal(b1-4)GlcNAc(b1-3)Gal(b1-4)GlcNAc
# Summary of the method: as §1
# [7] = biological target: Fuc(a1-2)Gal(b1-4)GlcNAc(b1-3)Gal(b1-4)GlcNAc(b1-3)Gal(b1-4)GlcNAc
# Summary of the method: as §1
# [8] = biological target: Fuc(a1-2)Gal(b1-4)GlcNAc6S
# Summary of the method: as §1
# [9] = biological target: Fuc(a1-2)Gal(b1-4)[Fuc(a1-3)]GlcNAc
# Summary of the method: as §1
# [10] = biological target: Fuc(a1-2)Gal(b1-4)[Fuc(a1-3)]GlcNAc(b1-3)Gal(b1-4)[Fuc(a1-3)]GlcNAc
# Summary of the method: as §1
# [11] = biological target: Fuc(a1-2)Gal(b1-4)[Fuc(a1-3)]GlcNAc(b1-3)Gal(b1-4)[Fuc(a1-3)]GlcNAc(b1-3)Gal(b1-4)[Fuc(a1-3)]GlcNAc
# Summary of the method: as §1
# Fuc(a1-2)Gal6S(b1-4)Glc = biological target: Fuc(a1-2)Gal6S(b1-4)Glc
# Summary of the method: as §1
# [12] = biological target: Fuc(a1-2)Gal6S(b1-4)Glc6S
# Summary of the method: as §1
# [13] = biological target: Fuc(a1-2)Gal6S(b1-4)GlcNAc
# Summary of the method: as §1
# Fuc(a1-2)[Gal(a1-3)]Gal = biological target: Fuc(a1-2)[Gal(a1-3)]Gal
# Summary of the method: as §1
# [14] = biological target: Fuc(a1-2)[Gal(a1-3)]Gal(b1-3)GlcNAc
# Summary of the method: as §1
# [15] = biological target: Fuc(a1-2)[Gal(a1-3)]Gal(b1-4)Glc
# Summary of the method: as §1
# [16] = biological target: Fuc(a1-2)[Gal(a1-3)]Gal(b1-4)GlcNAc
# Summary of the method: as §1
# [17] = biological target: Fuc(a1-2)[Gal(a1-3)]Gal(b1-4)[Fuc(a1-3)]GlcNAc
# Summary of the method: as §1
# [18] = biological target: Fuc(a1-2)[Gal(a1-4)]Gal(b1-4)GlcNAc
# Summary of the method: as §1
# [19] = biological target: Fuc(a1-2)[GalNAc(a1-3)]Gal
# Summary of the method: as §1
# [20] = biological target: Fuc(a1-2)[GalNAc(a1-3)]Gal(b1-3)GlcNAc
# Summary of the method: as §1
# [21] = biological target: Fuc(a1-2)[GalNAc(a1-3)]Gal(b1-4)Glc
# Summary of the method: as §1
# [22] = biological target: Fuc(a1-2)[GalNAc(a1-3)]Gal(b1-4)GlcNAc
# Summary of the method: as §1
# [23] = biological target: Fuc(a1-2)[GalNAc(a1-3)]Gal(b1-4)[Fuc(a1-3)]GlcNAc
# Summary of the method: as §1
# [24] = biological target: Fuc(a1-2)[GalNAc(a1-4)]Gal(b1-4)GlcNAc
# Summary of the method: as §1
# [25] = biological target: Fuc(a1-2)[GalNAc(b1-3)]Gal
# Summary of the method: as §1
# Fuc(a1-3)GlcNAc = biological target: Fuc(a1-3)GlcNAc
# Summary of the method: as §1
# [26] = biological target: Fuc(a1-3)[Gal(b1-4)]Glc6S
# Summary of the method: as §1
# [27] = biological target: Fuc(a1-3)[Gal(b1-4)]GlcNAc
# Summary of the method: as §1
# [28] = biological target: Fuc(a1-3)[Gal(b1-4)]GlcNAc(b1-2)Man(a1-3)[Fuc(a1-3)[Gal(b1-4)]GlcNAc(b1-2)Man(a1-6)]Man(b1-4)GlcNAc(b1-4)GlcNAc
# Summary of the method: as §1
# [29] = biological target: Fuc(a1-3)[Gal(b1-4)]GlcNAc(b1-2)Man(a1-6)[Gal(b1-4)GlcNAc(b1-2)Man(a1-3)]Man(b1-4)GlcNAc(b1-4)GlcNAc
# Summary of the method: as §1
# [30] = biological target: Fuc(a1-3)[Gal(b1-4)]GlcNAc(b1-3)Gal(b1-3)[Fuc(a1-4)]GlcNAc
# Summary of the method: as §1
# [31] = biological target: Fuc(a1-3)[Gal(b1-4)]GlcNAc(b1-4)Gal(b1-4)[Fuc(a1-3)]GlcNAc
# Summary of the method: as §1
# [32] = biological target: Fuc(a1-3)[Gal(b1-4)]GlcNAc(b1-4)Gal(b1-4)[Fuc(a1-3)]GlcNAc(b1-4)Gal(b1-4)[Fuc(a1-3)]GlcNAc
# Summary of the method: as §1
# [33] = biological target: Fuc(a1-3)[Gal(b1-4)]GlcNAc6S
# Summary of the method: as §1
# [34] = biological target: Fuc(a1-3)[Gal3S(b1-4)]Glc6S
# Summary of the method: as §1
# [35] = biological target: Fuc(a1-3)[Gal3S(b1-4)]GlcNAc
# Summary of the method: as §1
# [36] = biological target: Fuc(a1-3)[Gal3S(b1-4)]GlcNAc6S
# Summary of the method: as §1
binder,measurement,setting,value
B1,glycan array binding signal (z-score),Fuc(a1-2)Gal,-0.017
same,glycan array binding signal (z-score),Fuc(a1-2)Gal(b1-3)GalNAc,-0.304
same,glycan array binding signal (z-score),[1],0.031
same,glycan array binding signal (z-score),[2],0.016
same,glycan array binding signal (z-score),[3],-0.293
same,glycan array binding signal (z-score),Fuc(a1-2)Gal(b1-3)GlcNAc,-0.266
same,glycan array binding signal (z-score),[4],0.213
same,glycan array binding signal (z-score),[5],-0.021
same,glycan array binding signal (z-score),Fuc(a1-2)Gal(b1-4)Glc,-0.185
same,glycan array binding signal (z-score),Fuc(a1-2)Gal(b1-4)Glc6S,-0.237
same,glycan array binding signal (z-score),Fuc(a1-2)Gal(b1-4)GlcNAc,-0.129
same,glycan array binding signal (z-score),[6],-0.284
same,glycan array binding signal (z-score),[7],-0.028
same,glycan array binding signal (z-score),[8],-0.079
same,glycan array binding signal (z-score),[9],-0.195
same,glycan array binding signal (z-score),[10],-0.196
same,glycan array binding signal (z-score),[11],-0.029
same,glycan array binding signal (z-score),Fuc(a1-2)Gal6S(b1-4)Glc,-0.249
same,glycan array binding signal (z-score),[12],0.13
same,glycan array binding signal (z-score),[13],0.101
same,glycan array binding signal (z-score),Fuc(a1-2)[Gal(a1-3)]Gal,0.081
same,glycan array binding signal (z-score),[14],15.8
same,glycan array binding signal (z-score),[15],-0.219
same,glycan array binding signal (z-score),[16],-0.339
same,glycan array binding signal (z-score),[17],0.14
same,glycan array binding signal (z-score),[18],0.179
same,glycan array binding signal (z-score),[19],0.943
same,glycan array binding signal (z-score),[20],0.117
same,glycan array binding signal (z-score),[21],-0.468
same,glycan array binding signal (z-score),[22],0.014
same,glycan array binding signal (z-score),[23],-0.095
same,glycan array binding signal (z-score),[24],0.22
same,glycan array binding signal (z-score),[25],0.576
same,glycan array binding signal (z-score),Fuc(a1-3)GlcNAc,0.258
same,glycan array binding signal (z-score),[26],-0.349
same,glycan array binding signal (z-score),[27],-0.065
same,glycan array binding signal (z-score),[28],-0.372
same,glycan array binding signal (z-score),[29],-0.18
same,glycan array binding signal (z-score),[30],-0.297
same,glycan array binding signal (z-score),[31],-0.362
same,glycan array binding signal (z-score),[32],-0.395
same,glycan array binding signal (z-score),[33],-0.045
same,glycan array binding signal (z-score),[34],-0.232
same,glycan array binding signal (z-score),[35],0.291
same,glycan array binding signal (z-score),[36],-0.146
